This is an account of results in PubChem BioAssay (EPA / NIEHS).

Assay [1] has as its target human Peroxisome Proliferator-activated Receptor alpha (PPARa), PPARA (gene 5465) (UniProt Q07869). The experiment in a line: ATG_PPARa_TRANS: Attagene TRANS-FACTORIAL HepG2 Assay for human Peroxisome Proliferator-activated Receptor alpha (PPARa) (AID 2283001; active = hit-call score of the fitted dose curve at least 0.9, where 1 is the maximum). The essentials:
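Cells (HepG2) are transfected with multiple reporter transcription units, exposed to chemical for 24 h, then total RNA is reverse-transcribed and amplified. Labelled products are quantified by capillary electrophoresis; induction is referenced to DMSO.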

Read-out in assay [2]: Monokine induced gamma interferon (MIG), CXCL9 (gene 4283)
The experiment in a line: BSK_3C_MIG: BioMAP Diversity Plus: 3C Assay for Monokine induced gamma interferon (MIG) Biomarker Activity (AID 2283021).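 Also: MIG protein level measured by immunoassay in the treated endothelial cultures.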 The following applies: actives raise or lower the signal; primary human endothelial cells (HUVEC). The method, boiled down: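 ELISA measurement of MIG in human umbilical vein endothelial cells 24 h after treatment. Cytotoxicity tracked by SRB staining in parallel cultures; gain or loss of signal fitted relative to DMSO.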

Read-out in assay [3]: Macrophage colony-stimulating factor (MCSF), CSF1 (gene 1435)
The experiment in a line: BSK_CASM3C_MCSF: BioMAP Diversity Plus: CASM3C Assay for Macrophage colony-stimulating factor (MCSF) Biomarker Activity (AID 2283044).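 Also: M-CSF protein amount quantified by ELISA after 24 h exposure.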 The following applies: actives raise or lower the signal; primary human coronary artery smooth muscle cells.

Read-out in assay [4]: Monocyte Chemoattractant Protein-1 (MCP1), CCL2 (gene 6347)
The experiment in a line: BSK_LPS_MCP1: BioMAP Diversity Plus: LPS Assay for Monocyte Chemoattractant Protein-1 (MCP1) Biomarker Activity (AID 2283081).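 Also: secreted MCP-1 protein quantified by ELISA in culture supernatant.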 To be noted: actives raise or lower the signal; primary human HUVEC with PBMC. The method, boiled down:
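ELISA read-out of MCP-1 after 24 h chemical dosing of a human umbilical vein endothelial cell/peripheral blood mononuclear cell co-culture stimulated with LPS. Gain or loss of signal fitted relative to DMSO controls.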

Assay [5] is described as follows: BSK_SAg_PBMCCytotoxicity: PBMC Cytotoxicity Assessment in the BioMAP Diversity Plus: SAg Assay (AID 2283093).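 Also: PBMC superantigen activated with SEB plus TSST-1 one hour after compound addition; PBMC viability measured as Alamar Blue reduction fluorescence at 546/580 nm; fitted both ways against DMSO so a hit may be loss or gain of signal.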 The following applies: primary human HUVEC with PBMC. The method, boiled down: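 Alamar Blue reduction (6 h, 546/580 nm) reports PBMC cytotoxicity after 90 h superantigen activation (SEB, TSST-1; 20 ng/mL final each) with 1 h compound pre-treatment. Gain or loss of signal fitted versus DMSO.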

Assay [6] deals with Estrogen receptor (Homo sapiens) (UniProt P03372). The experiment in a line: OT_ER_ERaERa_1440: Odyssey Thera (OT) 24-hour HEK293T Protein-Complementation Assay for Estrogen Receptor-alpha/-alpha Homodimer (AID 2283349; active = hit-call score of the fitted dose curve at least 0.9, where 1 is the maximum;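 also: hits raise fluorescence above DMSO for agonists and antagonists alike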). The method, boiled down: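 Stably transfected HEK293T; ERα LBD homodimer PCA. 24 h dosing, fluorescence intensity read, gain-of-signal vs DMSO.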
Read-out in assay [7]: Intercellular Adhesion Molecule 1 (ICAM1), ICAM1 (gene 3383)
The experiment in a line: BSK_3C_ICAM1: BioMAP Diversity Plus: 3C Assay for Intercellular Adhesion Molecule 1 (ICAM1) Biomarker Activity (AID 2283003). To be noted: actives raise or lower the signal; primary human endothelial cells (HUVEC). The method, boiled down: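 ELISA readout of ICAM1 in human umbilical vein endothelial cells in the 3C system, taken 24 h post-dose. Gain or loss of signal versus DMSO was fitted in both directions, with SRB total-protein staining run in parallel.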

Assay [8] concerns the target guinea pig Sigma Receptor, Non-selective Binding, SIGMAR1 (gene 100135589) (UniProt Q60492). The experiment in a line: NVS_OR_gSIGMA_NonSelective: NovaScreen (NVS) Nuclear Receptor Binding Assay for guinea pig Sigma Receptor, Non-selective Binding (AID 2283367; active = hit-call score of the fitted dose curve at least 0.9, where 1 is the maximum). On the procedure:
NVS_OR_gSIGMA_NonSelective is a biochemical, single-readout assay that uses extracted gene-proteins from Guinea pig brain membranes in a tissue-based cell-free assay. Measurements were taken 1 hour after chemical dosing in a 48-well plate.NVS_OR_gSIGMA_NonSelective is one of one assay component(s) measured or calculated from the NVS_OR_gSIGMA_NonSelective assay. It is designed to make measurements of radioligand binding, a form of binding reporter, as detected with scintillation counting signals by Filter-based radiodetection technology.Data from the assay component NVS_OR_gSIGMA_NonSelective was analyzed into 1 assay endpoint. This assay endpoint, NVS_OR_gSIGMA_NonSelective, was analyzed in the positive analysis fitting direction relative to DMSO as the negative control and baseline of activity. Using a type of binding reporter, loss-of-signal activity can be used to understand changes in the binding as they relate to the gene Sigmar1. Furthermore, this assay endpoint can be referred to as a primary readout, because the performed assay has only produced 1 assay endpoint. To generalize the intended target to other relatable targets, this assay endpoint is annotated to the misc protein intended target family, where the subfamily is chaperone. […]

The nature of assay [9]: LTEA_HepaRG_LDH_cytotoxicity: Cytotoxicity Assessment in the Life Technologies and Expression Analysis (LTEA) Assay (AID 2283563; active = hit-call score of the fitted dose curve at least 0.9, where 1 is the maximum;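 also: LDH activity released into spent culture medium as a marker of cell death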). The essentials:
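HepaRG (human liver line), 48 h exposure, 8-pt half-log series from 100 uM, 0.5% DMSO vehicle, duplicates. Read-out: LDH in spent medium. Positive-direction fit vs DMSO baseline.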

In assay [10] the target is human Retinoid X Receptor beta (RXRb), RXRB (gene 6257) (UniProt P28702). The experiment in a line: ATG_RXRb_TRANS: Attagene TRANS-FACTORIAL HepG2 Assay for human Retinoid X Receptor beta (RXRb) (AID 2283013; active = hit-call score of the fitted dose curve at least 0.9, where 1 is the maximum). The method, boiled down: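 Readout is reporter transcript induction after 24 h dosing. It is measured by RT-PCR of total RNA followed by fluorescent capillary electrophoresis. HepG2 liver cells carry transfected multiple reporter units driven by an exogenous RXRb-Gal4 fusion; activity is relative to DMSO.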

A short description of assay [11]: BSK_3C_Proliferation: Cell Proliferation Assessment in the BioMAP Diversity Plus: 3C Assay (AID 2283006).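 Also: potency may reflect either rise or fall in cell number versus DMSO.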 To be noted: primary human endothelial cells (HUVEC). The essentials:
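Proliferation as total protein: sulforhodamine B (0.1%) stain of TCA-fixed subconfluent human umbilical vein endothelial cells, absorbance 560 nm, 48 h after dosing. Activity fitted in both directions against DMSO baseline.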

In assay [12] the target is human Vitamin D Receptor (VDR), VDR (gene 7421) (UniProt P11473). The experiment in a line: ATG_VDR_TRANS: Attagene TRANS-FACTORIAL HepG2 Assay for human Vitamin D Receptor (VDR) (AID 2283022; active = hit-call score of the fitted dose curve at least 0.9, where 1 is the maximum). The essentials: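 RT-PCR/capillary electrophoresis read-out of reporter mRNA induction in transiently transfected HepG2; 24 h dosing; chimeric NR-Gal4 (TRANS format); gain-of-signal fit against DMSO baseline.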

Read-out in assay [13]: Vascular cell adhesion molecule 1 (VCAM1), VCAM1 (gene 7412)
The experiment in a line: BSK_hDFCGF_VCAM1: BioMAP Diversity Plus: hDFCGF Assay for Vascular cell adhesion molecule 1 (VCAM1) Biomarker Activity (AID 2283065).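 Also: VCAM-1 protein level quantified by ELISA after 24 h chemical exposure.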 To be noted: actives raise or lower the signal; primary human foreskin fibroblasts. The method, boiled down:
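ELISA read-out of VCAM-1 on human skin fibroblasts, 24 h post-dose; gain or loss of signal fitted bidirectionally against DMSO baseline.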

Read-out in assay [14]: Intercellular Adhesion Molecule 1 (ICAM1), ICAM1 (gene 3383)
The experiment in a line: BSK_KF3CT_ICAM1: BioMAP Diversity Plus: KF3CT Assay for Intercellular Adhesion Molecule 1 (ICAM1) Biomarker Activity (AID 2283067). The following applies: actives raise or lower the signal; primary human keratinocytes with fibroblasts. The method, boiled down: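 ELISA readout of ICAM-1; KF3CT human skin co-culture (keratinocytes + foreskin fibroblasts), 24 h post-dose; gain/loss fit vs DMSO baseline.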

Read-out in assay [15]: E-selectin (Homo sapiens) (UniProt P16581)
The experiment in a line: BSK_SAg_Eselectin: BioMAP Diversity Plus: SAg Assay for Eselectin Biomarker Activity (AID 2283091). The following applies: actives raise or lower the signal; primary human HUVEC with PBMC. The essentials: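 E-selectin ELISA readout at 24 h post-dosing in human umbilical vein endothelial cell/PBMC co-culture; gain or loss of signal fitted relative to DMSO baseline.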

Assay [16] addresses human Acid Phosphatase 1 (ACP1), ACP1 (gene 52) (UniProt P24666). The experiment in a line: NVS_ENZ_hACP1: NovaScreen (NVS) Enzymatic Assay for human Acid Phosphatase 1 (ACP1) (AID 2283136; active = hit-call score of the fitted dose curve at least 0.9, where 1 is the maximum). On the procedure:
NVS_ENZ_hACP1 is a biochemical, single-readout assay that uses extracted gene-proteins from SF9 in a cell-free assay. Measurements were taken 1.5 hours after chemical dosing in a 384-well plate.NVS_ENZ_hACP1 is one of one assay component(s) measured or calculated from the NVS_ENZ_hACP1 assay. It is designed to make measurements of enzyme activity, a form of enzyme reporter, as detected with fluorescence intensity signals by Fluorescence and electrophoretic mobility shift technology.Data from the assay component NVS_ENZ_hACP1 was analyzed into 1 assay endpoint. This assay endpoint, NVS_ENZ_hACP1, was analyzed in the positive analysis fitting direction relative to DMSO as the negative control and baseline of activity. Using a type of enzyme reporter, loss-of-signal activity can be used to understand changes in the enzymatic activity as they relate to the gene ACP1. Furthermore, this assay endpoint can be referred to as a primary readout, because this assay has produced multiple assay endpoints where this one serves a enzymatic activity function. To generalize the intended target to other relatable targets, this assay endpoint is annotated to the phosphatase intended target family, where the subfamily is acid phosphatase. […]

Assay [17] addresses human Vascular Endothelial Growth Factor Receptor 3 (VEGFR3), FLT4 (gene 2324) (UniProt P35916). The experiment in a line: NVS_ENZ_hVEGFR3: NovaScreen (NVS) Enzymatic Assay for human Vascular Endothelial Growth Factor Receptor 3 (VEGFR3) (AID 2283229; active = hit-call score of the fitted dose curve at least 0.9, where 1 is the maximum). The essentials:
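Chemicals first run in duplicate at 25 uM, with actives re-tested in concentration series to a top of 50 uM. Recombinant VEGFR3 activity measured after 1 h via fluorescence with mobility-shift product separation; inhibition fitted relative to DMSO.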

Read-out in assay [18]: JUN Transcription Factor, JUN (gene 3725)
The experiment in a line: LTEA_HepaRG_JUN: Life Technologies and Expression Analysis (LTEA) Assay for JUN Transcription Factor using HepaRG (AID 2283513). The following applies: actives raise or lower the signal; mRNA level, 48 h. The essentials: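 mRNA measured by TaqMan qRT-PCR after 48 h chemical exposure of HepaRG cultures; normalization to three housekeeping genes. Duplicate eight-point half-log curves from 100 uM in 0.5% DMSO; gain or loss fitted against DMSO baseline.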

Assay [19] in a line: CCTE_Shafer_MEA_dev_per_network_spike_spike_number_mean: CCTE's Neural Network Formation Assay for Mean Number of Spikes in a Network Spike, Shafer Lab (AID 2284053).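 Also: fitted as decrease in spikes per network spike relative to DMSO.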 The method, boiled down:
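Mean spike count within each network spike, taken in a 0.05 s window at its peak, was recorded on days 5, 7, 9 and 12 and integrated as trapezoidal area under the curve. Rat cortical cultures on MEA plates received continuous compound from day 0, refreshed at medium changes on DIV 5 and 9.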

This is a selection; strong and weak results do not stand in their true shares. Records with an inconclusive call do not appear. The source holds several records for some structures; these can differ, active in one and inactive in another. Calls of active or inactive are those of the source. The calls were made as follows, unless noted: active = hit-call score of the fitted dose curve at least 0.9, where 1 is the maximum; inactive = score below 0.9.

In the case of `Cc1ccc(-c2cc(C(F)(F)F)nn2-c2ccc(S(N)(=O)=O)cc2)cc1`, the molecule was classed as inactive in [1] and in [6]. In addition, the half-maximal activity concentration (AC50) is active: 38.9 µM in assay [2], active: 31.7 µM in assay [3], active: 35.5 µM in [4] and active: 14.1 µM in [5].

Regarding `CC(=O)NC1(c2cccc(F)c2)CCN(CC[C@@]2(c3ccc(Cl)c(Cl)c3)CN(c3ccccc3)C(=O)CO2)CC1`, in assay [7], the outcome was inactive. The concentration at half-maximal activity (AC50) in assay [8] was active: 10.7 µM; in assay [9], active: 59.8 µM.

With `C=C(C)C(=O)OCC(CC)(COC(=O)C(=C)C)COC(=O)C(=C)C`, the molecule was classed as inactive in assay [1] and in [10].

Turning to `S=C([S-])NCCNC(=S)[S-].[Mn+2]`, the AC50 in assay [11] was active: 16.5 µM; in [13], active: 20 µM; in assay [15], active: 14 µM; in [16] it was active: 2.49 µM; in assay [17], active: 10.1 µM; in assay [18], active: 4.04 µM. Moreover, the AC50 in assay [19] is active: 0.0127 µM. The molecule was called inactive in assay [12] and in [14].

For orientation: AC50 means the midpoint of the concentration-response curve, whichever way the signal moves.
